From PubChem BioAssay (NCI) come the findings set out here.

Structures are written as SMILES.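 Method: 48-hour compound exposure of cells in 96-well plates, five concentrations, linear interpolation of endpoints. Abbreviation: GI50, concentration required for 50% inhibition of growth.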 Certain results were filed several times, with different values. The list is limited to them. The source may hold further records. Records of one sample usually come from different ranges of test concentrations, which the source does not state; a value can be the end of its range.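 TGI denotes the concentration required for complete inhibition of growth.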

Some test systems named below: OVCAR-4 ovarian; HL-60(TB) leukemia; SK-MEL-5 melanoma; CAKI-1 renal; HT29 colon; COLO 205 colon; DLD-1 colon; DMS 114 small cell lung; LOX IMVI melanoma; HCT-116 colon; DMS 273 small cell lung; CCRF-CEM leukemia; T-47D breast; NCI-H23 lung; NCI-H460 lung; UO-31 renal; OVCAR-5 ovarian; SN12C renal.
Common to all, as to experiment: NCI-60 cell line screen, 48 h

Take `CC(C)[O-].CC(C)[O-].[O-]c1cccc2cccnc12.[O-]c1cccc2cccnc12.[Ti+4]`: the TGI was 5.74 µM and > 100 µM in the assay with OVCAR-4 ovarian; 456 nM and 5.51 µM in the assay on HL-60(TB) leukemia; 5.88 µM and > 100 µM with SK-MEL-5 melanoma. In the assay with CAKI-1 renal, the GI50 is 7.17 µM and > 100 µM.

For the compound `CCOC(=O)CNC(=O)C(CSC(=O)N(C)O)NC(=O)CCC(N)C(=O)O` (centres undefined), the TGI with HT29 colon is 2 µM and > 2 mM; with COLO 205 colon, 2 µM and > 2 mM; with DLD-1 colon, 1.12 µM and > 2 mM; in the assay with DMS 114 small cell lung it was 2 µM and > 2 mM; in the assay on LOX IMVI melanoma, 1.05 µM and > 2 mM; in the assay on HCT-116 colon, 2 µM and > 2 mM. Further, the TGI is 1.8 µM and > 2 mM in the assay with DMS 273 small cell lung; 2 µM and > 2 mM in the assay on CCRF-CEM leukemia.

Consider `CC[C@@]1(OC(=O)CN)C(=O)OCc2c1cc1n(c2=O)Cc2cc3c(N)c4c(cc3nc2-1)OCO4`, for which the GI50 in the assay on T-47D breast was 0.196 nM and 18.7 nM. The TGI in the assay on NCI-H23 lung is 10.7 nM and 124 nM; in the assay with NCI-H460 lung, 11.2 nM and > 100 µM; in the assay with UO-31 renal it was 33.1 nM and > 100 µM; in the assay on LOX IMVI melanoma it was 11.1 nM and 117 nM; in the assay with OVCAR-5 ovarian, 112 nM and > 100 µM; with SN12C renal, 265 nM and > 100 µM.
